About 6,200 (6.6%) of roughly 94,000 compounds were called active. This list was built around the results that the source calls inconclusive (neither active nor inactive); the mix of calls is not that of the screen. The call rests on the fitted dose curve; in most records, active means well fitted inhibition curve with a large enough effect; inconclusive means small, poorly fitted or top-dose-only effect; inactive means flat fitted curve, though single readings scatter. Potencies beside an inconclusive call are fits to weak or partial responses and may not hold up.
Test: Cytotoxic Profiling in HEK 293 Cell Line of Diverse Libraries Using Quantitative High-Throughput Screening; further: nearly all actives have a fitted effect of over 60% in size
Settings: HEK 293 viability, ATP luminescence (CellTiter-Glo), 48-72 h; activity change, negative = cytotoxicity: at 115 µM (top of the series) unless noted; series mostly up to 115 µM
In short: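 qHTS cytotoxicity; HEK 293, 250 cells/well; compound pinned; 48 or 72 hr, 37 degree Celsius, 5% CO2, 95% humidity; CellTiter-Glo, 10 min RT; luminescence (ATP).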
On the % scale 0 is the no-effect control and ±100 the full control effect; potency means the concentration at half of the fitted maximal effect; tags describe the fitted curve by direction and shape.

Compound	Potency	activity change, negative = cytotoxicity	outcome
CC(C)Cc1ccc(S(=O)(=O)N2C[C@@H](F)C[C@H]2C(=O)N2CCc3ccccc3C2)cc1	inconclusive: 89.1 µM [inhibitor, single point]	–	–
Cc1nn(C(=O)CCC(=O)N2CCC(Cc3nc(C4CCOCC4)no3)CC2)c2ccccc12	inconclusive: 50.1 µM [inhibitor, partial curve, poor fit]	–	–
COCC(=O)NC1CCN(c2ccc3nnc(-c4ccccc4)n3n2)CC1	inconclusive: 89.1 µM [inhibitor, single point]	–	–
O=C(NCc1ccc(F)cc1)c1cn2cc(-c3cccc(C(F)(F)F)c3)sc2n1	–	inactive: -24.3%	–
CC(C)c1ccc(NC(=O)c2ccc(CN3C(=O)NC4(CCOCC4)C3=O)cc2)cc1	inconclusive: 50.1 µM [inhibitor, partial curve, poor fit]	–	–
N#Cc1ccc(C(=O)NC2CCN(c3cc(-c4ccc(Cl)cc4)[nH]n3)CC2)cc1	inconclusive: 79.4 µM [inhibitor, partial curve, poor fit]	–	–
O=C(NCc1ccccc1)c1ccccc1OC1CN(Cc2cccnc2F)C1	inconclusive: 39.8 µM [inhibitor, partial curve]	–	–
Cc1cc2ncc(C(=O)NC(C)CCc3ccccc3)cn2n1 (stereo unspecified)	inconclusive: 44.7 µM [inhibitor, partial curve]	–	–
N#Cc1ccc(CN2CC3(Cc4ccccc4C(=O)N3)C2)cc1	inconclusive: 112 µM [inhibitor, partial curve, poor fit]	–	–
Cc1cccc(NC(=O)N2CC3CN(C)CC(C2)O3)c1	–	inactive: 3.65%	–
CC(C)OCCCNC(=O)C1c2ccccc2C(=O)N(Cc2ccccc2)C12CCCC2 (stereo unspecified)	inconclusive: 79.4 µM [inhibitor, partial curve, poor fit]	–	–
O=C1NC2(Cc3ccccc31)CN(Cc1cscn1)C2	–	–	inactive [at 172 µM]
CC1(C)[C@H](Cc2cc(CC3CCCCC3)on2)C[C@@H]1NC(=O)C1CCC1	active: 35.5 µM	–	–
O=C(NCc1ccccc1F)c1ccc2c(c1)CNCCO2	–	inactive: 0.0834%	–
Cc1cnc(C2CCOCC2)n1C1CCCN(C(=O)CCc2c[nH]c3ccccc23)C1 (stereo unspecified)	–	–	inactive
Cn1cccc1CN1CCC2(Cc3ccccc3CNC2=O)C1 (stereo unspecified)	–	inactive: -10.2%	–
Cn1nccc1-c1ncc2c(n1)OCCN(Cc1ccc(F)cc1F)C2=O	inconclusive: 89.1 µM [inhibitor, partial curve]	–	–
O=C(NCc1ccccc1)c1ccc(-c2cccc3c2CCNC3)o1	inconclusive: 56.2 µM [inhibitor, partial curve, poor fit]	–	–
COc1ccc(-c2cc(N3CCCC(NC(=O)c4ccc(F)cc4Cl)C3)n[nH]2)cc1 (stereo unspecified)	inconclusive: 50.1 µM [inhibitor, partial curve, poor fit]	–	–
Cc1cccc(C(=O)N2CCC3(CC2)OCC(C(=O)N2CCCC2)N3C(=O)c2cccc(C)c2)c1 (stereo unspecified)	–	inactive: -22.1%	–
Cc1ccccc1N1CCN(C(=O)c2cc3cn(C4CC4)cc3s2)CC1	active: 79.4 µM	–	–
Cc1cc(C)c(CN2CCC3(CC2)Cc2ccccc2CNC3=O)c(C)c1	–	inactive: -0.357%	–

Compound	Potency	activity change, negative = cytotoxicity	outcome
O=C(C1CCCN(c2nc(-c3ccccc3)nc3c2CCC3)C1)N1CCNCC1 (stereo unspecified)	inconclusive: 89.1 µM [inhibitor, single point]	–	–
O=C([C@H]1C[C@H](Oc2ccccc2)CN1C(=O)Nc1cccc(F)c1)N1CCOCC1	–	inactive: -11%	–
CN1CC(=O)N(c2ccccc2)Cc2c(NCCOc3ccccc3)ncnc21	inconclusive: 44.7 µM [inhibitor, partial curve, poor fit]	–	–
CNC(=O)c1cc(C2CC2)nc2onc(C3CCCN(C(=O)c4ccccc4F)C3)c12 (stereo unspecified)	inconclusive: 89.1 µM [inhibitor, single point]	–	–
Cc1cccc(NC(=O)N2CCCCCC2CN2CCc3ccccc3C2)c1 (stereo unspecified)	inconclusive: 100 µM [inhibitor, partial curve, poor fit]	–	–
O=C(NCc1cccs1)c1csc(N2CCN(c3ccc(F)cc3)CC2)n1	active: 31.6 µM	–	–
COc1ccc(OC)c(NC(=O)CC2=C3CCCCC3N(Cc3ccc(F)cc3)C2=O)c1 (stereo unspecified)	inconclusive: 50.1 µM [inhibitor, partial curve, poor fit]	–	–
COc1ccc(F)cc1Nc1cnc2ccc(N(C)Cc3cccnc3)nn12	active: 35.5 µM	–	–
O[C@@H]1C[C@@H](c2nc(-c3ccc4c(c3)OCO4)no2)N(Cc2cc3ccccc3o2)C1	inconclusive: 126 µM [inhibitor, single point]	–	–
CC(=O)c1cccc(NC(=O)CN2C(=O)NC(c3ccc(C)cc3)C3=C2COC3=O)c1 (stereo unspecified)	inconclusive: 56.2 µM [inhibitor, partial curve, poor fit]	–	–
O=C(C1CCc2nnc(-c3ccc(Cl)nc3)n21)N1CCN(c2ncccn2)CC1 (stereo unspecified)	–	–	inactive
COC[C@@H]1CN(C(=O)c2cc(C)oc2C)C[C@H]1c1nc(C2CC2)no1	inconclusive: 31.6 µM [inhibitor, partial curve, poor fit]	–	–
O=C(NCc1ccncc1)c1ccc2c(c1)n(Cc1ccc(F)cc1)c(=O)c1ccnn12	inconclusive: 89.1 µM [inhibitor, single point]	–	–
COc1ccc(-c2nc(C)nc3c2CCN(C(=O)c2ccc(C)cc2)CC3)cc1	inconclusive: 79.4 µM [inhibitor, partial curve, poor fit]	–	–
C[S+](=O)([O-])N1Cc2ccccc2CC2(CCCCN2CCc2ccccc2)C1 (stereo unspecified)	inconclusive: 79.4 µM [inhibitor, partial curve, poor fit]	–	–
O=C(NCc1ccccc1F)c1ccc2c(c1)CN(Cc1cc(F)c(F)c(F)c1)CCO2	inconclusive: 31.6 µM [inhibitor, full curve]	–	–
CSc1ccc(-c2noc(-c3nnn4c3COC(c3ccc(C)cc3C)C4)n2)cc1 (stereo unspecified)	–	inactive: 10%	–
NCc1ccccc1-c1ccc(O)cc1	–	inactive: -14.4% [at 172 µM]	–
CC(C)(C)c1cc(C(=O)N2CCN(c3ncccn3)CC2)nn2cccc12	inconclusive: 79.4 µM [inhibitor, partial curve, poor fit]	–	–
O=C(c1ccc(Cl)cc1)N1CCOCC2(CN(Cc3ccccc3)C2)C1	–	inactive: -68.6% [at 172 µM]	–
Cc1ccccc1-c1cnc2[nH]cc(CC(=O)N3CCOCC3)c2c1	active: 112 µM	–	–
O=C1COc2ccc(-c3cc(F)cc(F)c3)nc2CN1Cc1ccccc1	inconclusive: 35.5 µM [inhibitor, full curve]	–	–

Compound	Potency	activity change, negative = cytotoxicity	outcome
CCC(C)C(=O)NCc1cc2c(nc1OC)CN(CCc1ccccn1)C2=O (stereo unspecified)	–	inactive: 1.55%	–
O=C1Nc2ccccc2CN(CC2CCCCC2)C12CCNCC2	active: 35.5 µM	–	–
O=C(CCc1nnn2c1CN(Cc1ccc(O)c(F)c1)CC2)NCc1ccccc1	inconclusive: 15.8 µM [inhibitor, full curve, poor fit]	–	–
COc1ccccc1-c1nc2nccc(-c3ccsc3)n2n1	inconclusive: 79.4 µM [inhibitor, partial curve, poor fit]	–	–
Cc1ccc(F)c(C(CC(=O)NCc2ccco2)c2c[nH]c3ccc([N+](=O)[O-])cc23)c1 (stereo unspecified)	active: 39.8 µM	–	–
CCc1ccc(C(C)NC(=O)c2ccc3c(c2)N(S(=O)(=O)c2ccccc2)CC3)cc1 (stereo unspecified)	inconclusive: 17.8 µM [inhibitor, full curve, poor fit]	–	–
CCCCN1C(=O)C(CC(=O)NC(C)(C)CC)Sc2ncccc21 (stereo unspecified)	inconclusive: 89.1 µM [inhibitor, single point]	–	–
CN1C(=O)COC[C@@H]1[C@H](O)c1ccc(NC(=O)c2ccc(F)cc2)cc1	–	inactive: -10.2% [at 172 µM]	–
COc1ccc2cc1Nc1ccc(cc1)C[C@H](NCc1ccc(C)o1)C(=O)N(C)[C@H](C(=O)NCCC(C)C)C2	inconclusive: 89.1 µM [inhibitor, single point]	–	–
COCCN(C)C(=O)c1ccc2c(c1)C1(CCN(C)C1)CN2CC1CC1 (stereo unspecified)	–	inactive: -16.6% [at 172 µM]	–
O=C(c1cccc(O)c1)N1CCCC(CCc2cccc(C(F)(F)F)c2)C1 (stereo unspecified)	active: 39.8 µM	–	–
CN(C)C(=O)c1ccc(-c2cc(NC3CCCC3)nc3[nH]ccc23)o1	active: 44.7 µM	–	–
CC(=O)Nc1cc(C(=O)N(C)Cc2ccco2)c2ccc(C)nc2c1	inconclusive: 79.4 µM [inhibitor, partial curve, poor fit]	–	–
CC1=C[C@@H](CNCc2ccco2)[C@H](C(C)C)C[C@H]1Cc1nnc(-c2ccccc2F)o1	active: 79.4 µM	–	–
CC1(C(=O)NCc2cccnc2)CN(Cc2ccccc2)Cc2ccc(N3CCOCC3)nc21 (stereo unspecified)	inconclusive: 89.1 µM [inhibitor, partial curve, poor fit]	–	–
O=C(c1ccccc1F)N1CCCC(c2noc(COc3ccccc3)n2)C1 (stereo unspecified)	inconclusive: 70.8 µM [inhibitor, single point]	–	–
COc1ccc(-c2nnc3ccc(N(C)Cc4ccccc4)nn23)nc1	inconclusive: 50.1 µM [inhibitor, partial curve, poor fit]	–	–
CC1=C[C@@H](CNC(=O)COc2ccccc2)[C@H](C(C)C)C[C@H]1CC(=O)NCc1ccccn1	inconclusive: 56.2 µM [inhibitor, partial curve, poor fit]	–	–
COc1ccc(-c2nc(C)nc3c2CN(C(=O)C2CCCC2)CC3)cc1	–	inactive: 3.56%	–
CC#CC(=O)N1CCCC(C(=O)Nc2ccc(-c3cccc(OC)c3)cc2)C1 (stereo unspecified)	inconclusive: 39.8 µM [inhibitor, full curve, poor fit]	–	–
O=C(NCCCc1ccccc1)C1CCCN1C(=O)c1cccc(-c2ccccn2)c1 (stereo unspecified)	–	inactive: -12%	–
COc1cccc(-c2ccc(C(=O)NCCNC(=O)Cc3cccc(Cl)c3)cc2)c1	inconclusive: 22.4 µM [inhibitor, full curve]	–	–

From PubChem BioAssay AID1345083 (National Center for Advancing Translational Sciences (NCATS), 2018)
